Experimental data from the supplement of paper PMC10126150.
Sequences with one replicate were seen in a single cluster, so their values are uncertain.

Test system: ATP
Experiment: switch fluorescence ratio, 500 uM ATP over buffer (Cy3 cluster intensity, sum of 5 cycles each) (fold (ratio)); higher = stronger signal-on switching upon ATP binding; sequences stand for … in TCGTCGGCAGCGTCAGATGTGTATAAGAGACAGTTTTTTTTTTTTTTTTTTTTTTTTT…TC
Details: aptamer strand: ATP DNA aptamer (quencher-CACCTGGGGGAGTATTGCGGAGGAAGG + anchor), 100 nM annealed; ATP concentration: 500 uM; one replicate
Outline: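 Cy3-labelled switching-strand clusters on a modified Illumina MiSeq flow-cell were annealed to 100 nM quencher-labelled ATP aptamer, imaged in selection buffer, then imaged after 15 min with 500 uM ATP at 22 °C. Five buffer/ATP cycles ran, with NaOH stripping and re-annealing between them. The fluorescence ratio is summed target-cycle over summed buffer-cycle Cy3 intensity per cluster, averaged per switch-domain sequence. Clusters outside 100-1000 RFU were excluded.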
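Further: ATP exposure 15 min at 22 °C before imaging.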

| Sequence | switch fluorescence ratio |
| --- | --- |
| ACTAGTAGT | 1.02 |
| GCATGAAAGT | 0.945 |
| TCAATACAGC | 1.04 |
| GCCCATTATA | 1.01 |
| ACCTTAAAAA | 1.07 |
| ATTGTGCGCT | 1.04 |
| CGACAACTTC | 1.32 |
| ACCTCGTATC | 1.01 |
| TCTTCCCCGA | 2.85 |
| GTATGCCT | 0.964 |
| AGAAGTGTTC | 0.988 |
| ATTGTTCCGG | 1.02 |
| CCTTGCGAAC | 4.24 |
| CTCAGACATT | 1.01 |
| GCCGGGGGAT | 0.985 |
| GATTAGACGG | 0.979 |
| TCAAATGTTG | 0.975 |
| TGATTCCATA | 1.02 |
| CATGTTATTA | 1.01 |
| TCGTGCTCGG | 0.994 |
| GATTTATGGG | 1.01 |
| ATACCAACTC | 1.15 |

| Sequence | switch fluorescence ratio |
| --- | --- |
| GGCGAAACAG | 1.04 |
| CATCAAGCAC | 2.17 |
| CAAATTCCGC | 1.23 |
| TAGAGTGGCT | 0.98 |
| CTCCGGTT | 2.24 |
| CGCTTCTAGT | 0.98 |
| GGCCATACGA | 1.04 |
| ATATCATACA | 1.01 |
| TCGATGGATC | 1.01 |
| AAGACTCGGA | 0.947 |
| AAGAGAGTGG | 0.989 |
| AAACAACCCG | 1.14 |
| GCGACTGTT | 1.01 |
| AGCTGTAAGG | 1 |
| GCCACGCACT | 1.56 |
| CATTAATTAA | 0.98 |
| AATAAAGCGG | 1.02 |
| CATAGAAAAG | 0.96 |
| GGCATGCATA | 0.974 |
| AGAGAAAGAT | 0.994 |
| TAAGGGTA | 0.989 |
| ATCTCGCTTC | 1.09 |

| Sequence | switch fluorescence ratio |
| --- | --- |
| CAGAATCGG | 0.959 |
| GGTGCGTCTA | 1.04 |
| TTTTTCACCT | 0.986 |
| TGTTTGTGGG | 0.993 |
| TTGTACGAAT | 0.957 |
| GGGCGCCTAC | 1.55 |
| GGCAGGGCTT | 0.977 |
| TAAGCGCTAT | 1.02 |
| AATCGCGAGA | 0.977 |
| GATTGGCTGA | 0.992 |
| AGAGGAGGCG | 1.01 |
| GGTACTTGG | 1.03 |
| GCAGTGGTTT | 0.985 |
| GGCTTCTGAA | 1 |
| CACAACGCCA | 1.2 |
| CCCTGATGAA | 1.01 |
| TTGCCGTCCT | 1.01 |
| CGTTCAATTG | 0.988 |
| ACTATTGG | 0.983 |
| CGGCAGCAGG | 1.14 |
| TGGCTCTGCA | 1.19 |
| TCGGGACACA | 1.06 |

| Sequence | switch fluorescence ratio |
| --- | --- |
| AATGTGTTCT | 0.952 |
| AGATATGTAG | 1.07 |
| AGCCTACAAG | 0.984 |
| AACTAATCTG | 1.02 |
| CCATTTAAGT | 0.958 |
| TCTATGGACG | 1.08 |
| CCTAGGGTAA | 1.05 |
| CAGCCAGGC | 1.02 |
| GTTAGATGAA | 0.988 |
| AAATGTTACG | 1.01 |
| GCAGGACCG | 1.07 |
| AAGACGTCGA | 1.03 |
| TGCTACGCGG | 1.34 |
| TCTGGAGTTT | 0.996 |
| GGTTTTCCAA | 0.954 |
| GCGTGCAAAA | 0.935 |
| TTGACCGTAT | 1.05 |
| TGTTGTGGCT | 1.01 |
| TCATGTATTC | 0.992 |
